Experimental findings from patent EP4799696A2 (Regeneron Pharmaceuticals, Inc., dated 2026) are described below.

This assay has as its target T1, human VEGF165 (human, UniProt P15692-4 27-191).
T1 construct: Only named as the VEGF component of the VEGF:aflibercept complex measured by ELISA in plasma
T1 sequence (looked up): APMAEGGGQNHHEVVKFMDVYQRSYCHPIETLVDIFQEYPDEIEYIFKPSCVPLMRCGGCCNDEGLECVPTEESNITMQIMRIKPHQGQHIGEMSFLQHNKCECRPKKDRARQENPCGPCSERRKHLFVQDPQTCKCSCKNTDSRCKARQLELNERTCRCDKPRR
Kind of assay: ELISA of the VEGF:aflibercept complex in plasma of treated participants (PK assay). In general terms: In an ELISA, binding on a coated surface is turned into a signal by an enzyme label.

B1: aflibercept (Fc fusion)
chain: SDTGRPFVEMYSEIPEIIHMTEGRELVIPCRVTSPNITVTLKKFPLDTLIPDGKRIIWDSRKGFIISNATYKEIGLLTCEATVNGHLYKTNYLTHRQTNTIIDVVLSPSHGIELSVGEKLVLNCTARTELNVGIDFNWEYPSSKHQHKKLVNRDLKTQSGSEMKKFLSTLTIDGVTRSDQGLYTCAASSGLMTKKNSTFVRVHEK[in this place human IgG1 Fc]
notes: also called VEGF Trap; VEGF1R2-FcΔC1(a)
For B1, the binding result is “binds”.
